In PubChem BioAssay (NCI):
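Step 1: Grow cells in 96-well plates. Step 2: Expose to compound for 48 hours at 5 concentrations. Step 3: Interpolate endpoints linearly; if unreached, use highest concentration. GI50: concentration for 50% inhibition of growth. TGI is the concentration that stops growth completely.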

Test system: NCI-H322M lung
Test: inhibition of tumour cell growth, NCI panel, 48 h

Structure (SMILES)	GI50	TGI
ClC(Cl)c1nc(-c2cccs2)n2nc(-c3ccccc3)cc2n1	460 nM	1900 nM
COC[C@]12CCC(C)(C)C[C@H]1C1=CC[C@@H]3[C@@]4(C)CCCNC(C)(C)[C@@H]4CC[C@@]3(C)[C@]1(C)CC2	1640 nM	3060 nM
